# Laboratory results from the supplement of paper PMC12217912.
# The other results are listed elsewhere or left out. Sequences were assembled here from the parent chain. Inactive controls read about 0.05.
# B1: TEV protease; numbered along this chain (parent)
# chain: MGESLFKGPRDYNPISSSICHLTNESDGHTTSLYGIGFGPFIITNKHLFRRNNGTLVVQSLHGVFKVKDTTTLQQHLVDGRDMIIIRMPKDFPPFPQKLKFREPQREERICLVTTNFQTKSMSSMVSDTSCTFPSGDGIFWKHWIQTKDGQCGSPLVSTRDGFIVGIHSASNFTNTNNYFTSVPKNFMELLTNQEAQQWVSGWRLNADSVLWGGHKVFMVKPEEPFQPVKEATQL
# Variants of: B1
# Assay: raw area under fraction-flipped curve 0-4 h after induction (AUC4h, not background-subtracted), DNA-recorder readout of cleavage of the substrate (dimensionless); higher = more cleavage of the substrate by the protease variant
# Settings: temperature: 34 °C; time window: 0-4 h after rhamnose induction
# Method: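 In vivo DNA recorder in E. coli TOP10(DE3) ΔrhaA at 34 °C. Each TEVp single-site mutant (parent TEVp 0) is paired with a single-site variant of the 7-mer TEVs (canonical ENLYFQ|S). The substrate sits between flexible linkers in a Bxb1-sfGFP-TEVs-SsrA fusion, so cleavage stabilises Bxb1 and speeds flipping of a recombination array, read by NGS. The value is the raw area under the fraction-flipped curve over 0-4 h after rhamnose induction (AUC4h), with ≥20 reads per time point. It is not background-subtracted; inactive controls average about 0.047.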
# 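Further: Bxb1 expression induced with 0.2% (w/v) L-rhamnose at OD600 near 0.5, cultures sampled hourly, flipped fraction per protease–substrate barcode pair counted by paired-end Illumina sequencing.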
Variant,area with substrate ENAYFQS,area with substrate ENCYFQS,area with substrate ENDYFQS,area with substrate ENEYFQS,area with substrate ENFYFQS,area with substrate ENGYFQS,area with substrate ENHYFQS,area with substrate ENIYFQS,area with substrate ENKYFQS,area with substrate ENMYFQS,area with substrate ENNYFQS,area with substrate ENPYFQS,area with substrate ENQYFQS,area with substrate ENRYFQS,area with substrate ENSYFQS,area with substrate ENTYFQS,area with substrate ENVYFQS,area with substrate ENWYFQS,area with substrate ENYYFQS
G136C,0.075,0.0632,0.0621,0.0617,0.0566,0.0571,0.0553,0.132,0.0649,0.0992,0.0688,0.0633,0.0564,0.0609,0.0675,0.0536,0.076,0.052,0.0582
G136D,0.0668,0.0499,–,0.0619,–,0.0572,0.0592,–,–,0.0693,0.0471,–,0.0748,0.0554,0.0667,–,–,–,0.0556
D137V,0.049,–,0.0678,0.0611,–,0.0652,0.0282,–,0.0637,–,0.0496,0.0431,–,–,–,0.0474,–,–,–
I139V,0.0449,0.072,0.0562,0.0524,–,0.0561,–,0.11,0.0364,–,0.0663,–,0.0624,–,0.0171,0.0555,–,0.0515,0.0693
F140L,0.0646,0.0553,0.0626,–,–,0.065,0.0772,0.0654,–,0.0838,–,0.0705,0.0609,0.0625,0.0641,0.0646,0.0591,0.0441,0.058
F140V,0.0431,0.0488,0.0665,0.0595,0.0565,0.0375,0.0562,–,0.0651,0.0642,0.0645,–,0.0556,0.0449,0.0623,0.0651,0.0489,–,–
F140W,0.0504,–,–,–,–,–,0.0557,–,–,–,–,–,0.0389,–,–,–,–,0.0406,–
H143G,0.0472,0.0594,0.051,0.0449,0.0567,0.0504,0.0506,–,–,0.0663,0.0489,0.0382,–,0.0651,0.0522,0.0534,0.0533,0.0409,–
I145V,0.0785,–,0.0391,–,–,0.0695,–,–,0.0498,–,0.0594,–,–,–,0.0819,–,0.0752,–,–
Q146D,0.0488,0.0624,0.0708,0.0539,–,0.0604,0.0616,0.126,0.0445,–,0.0753,0.0585,0.0624,–,0.0626,–,0.0753,0.0078,0.0571
Q146P,0.0822,0.0575,0.0966,0.0578,0.0566,0.0695,–,–,–,–,–,0.0651,0.0578,0.0591,–,0.0631,–,0.0603,0.0589
T147F,0.0595,0.06,0.0645,0.0693,–,–,–,–,–,0.0669,0.0642,–,0.0551,0.0578,0.0576,0.0476,0.059,–,–
T147R,0.0525,0.0695,0.0703,0.0456,0.0558,0.0542,0.0548,–,0.0549,0.0547,0.0599,–,0.0659,0.0589,0.0576,0.049,0.052,–,0.0492
K148C,0.0764,0.0841,0.0685,0.0663,0.0502,–,0.0554,0.0834,–,0.0849,0.0472,0.0664,–,0.0471,0.077,0.0644,0.0706,–,0.0673
D149T,0.0601,0.0645,0.0617,0.0646,0.0591,0.0577,0.0586,–,0.0662,–,–,–,0.0556,0.0745,0.0665,0.0661,0.0563,–,0.0564
Q151N,0.082,0.0628,0.0601,0.065,0.0542,0.063,0.0604,0.0767,0.0594,–,0.0672,0.0721,0.0573,0.058,0.0682,0.072,0.0628,–,0.0499
Q151T,0.0546,0.0516,–,–,0.0603,0.0724,0.0702,0.0974,0.0674,0.0647,–,0.0387,0.0722,–,0.0659,0.0647,0.0575,0.0069,0.0472
Q151Y,0.0689,0.0524,0.0642,0.0661,–,–,0.058,0.1,–,–,0.0699,0.0593,0.0477,–,0.0583,0.0476,0.0782,0.0587,0.0534
P155I,0.0542,0.0573,0.0546,0.0613,0.076,0.0513,0.0556,0.0606,0.0649,0.0726,–,0.0374,0.0607,0.06,0.0639,0.0426,0.0791,0.0557,0.0411
V157W,0.0557,0.0514,0.0521,0.052,0.0626,0.0541,0.0257,–,–,0.0421,0.058,–,0.0516,–,0.0627,0.0521,–,0.0433,0.0626
S158Y,0.0466,0.0522,–,0.0525,0.056,0.0515,–,0.0481,–,–,0.0553,–,0.0572,0.0518,0.0597,0.0504,0.0567,–,0.0568
T159I,0.0663,–,0.0642,0.0609,0.0574,0.0689,0.0465,–,–,0.0808,0.0763,0.0511,0.0641,–,0.0744,0.0253,0.0774,–,–
R160W,0.0598,–,0.1,–,–,–,–,–,–,–,–,–,0.0779,0.072,0.0833,–,–,–,–
G162D,0.08,–,0.058,0.0623,–,0.0687,–,0.0926,–,–,–,–,0.059,0.043,0.0588,0.0496,0.0662,–,–
G162F,0.0479,0.0535,0.0761,0.0588,0.0607,0.0624,0.0485,–,–,0.06,0.0618,0.0714,–,–,0.0608,0.0395,0.0676,0.0586,0.066
G162L,0.0564,0.0508,0.0713,–,0.0512,0.0641,0.0505,–,–,–,–,–,0.059,–,0.0562,0.0673,0.0621,–,–
G162R,0.0656,0.0495,0.0532,0.0851,–,–,0.0525,0.083,–,0.0729,–,0.0631,0.0691,0.056,0.0562,0.0669,0.0745,–,0.0517
